In a compilation of properties of binary mixtures (doi:10.1016/j.molliq.2021.116049):
The densities may have been worked out from excess volumes.

Assay: xn = mol fraction of the nth substance listed
Details: 100 kPa

CC[n+]1ccn(C)c1.O=S(=O)([N-]S(=O)(=O)C(F)(F)F)C(F)(F)F + CC[n+]1ccn(C)c1.F[B-](F)(F)F
mass density [kg/m3]
Details	283.15 K	288.15 K	293.15 K	298.15 K	303.15 K	308.15 K	313.15 K
x2 = 0.046	1557	1552	1547	1542	1537	1531	1526
x2 = 0.0996	1547	1542	1537	–	1526	1521	1516
x2 = 0.2134	–	1520	1514	1509	1504	1499	1493
x2 = 0.2947	1508	1503	1497	1492	1487	1482	1476
x2 = 0.3985	1484	1479	–	1469	1463	–	–
x2 = 0.4971	1460	–	1450	1445	–	1434	1429
x2 = 0.6016	1431	1426	1422	1417	1412	1407	1402
x2 = 0.6974	1403	1398	–	1389	1384	1379	–
x2 = 0.8024	1368	1364	1359	1355	–	–	1341.3
x2 = 0.9142	1327	1322.9	1318.7	1314.5	1310.4	1306.3	1302.2
x2 = 0.9347	–	1314.8	1310.6	1306.6	1302.5	1298.5	1294.5
